This is an account of results in the supplement of paper PMC6206098.

± gives the uncertainty stated by the source. The sequences are guide strands of siRNAs; only the seed at positions 2 to 7 varies.

Usually cell viability stands for a read-out of living cells in per cent, often relative to untreated cells.

In one series the test system is H460. The experiment in a line: cell viability relative to lipid-only control; higher = less toxic. The settings on record: concentration: 10 nM; 96 h; Homo sapiens. Here is the method: (§1)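 Arrayed screen of 4096 siRNA duplexes, each carrying one of all possible 6mer seeds at guide-strand positions 2-7 in a fixed neutral 19mer scaffold (constant flanks: U at position 1, then ACAUGUAAACCA, plus a 3' AA overhang). The passenger strand is 2'-O-methylated at positions 1-2 so only the guide strand loads into RISC. Duplexes were reverse-transfected at 10 nM with RNAiMAX in triplicate in 384-well plates; viability was read by CellTiter-Glo ATP content 96 h after transfection. Values are % viability normalised to lipid-only wells (HeyA8, H460, M565) or to siNT1 (3LL).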

The next series concerns HeyA8. Described as above. The settings on record: concentration: 10 nM; 96 h; Homo sapiens. The procedure:
as §1

A further series concerns M565. The series is described as above. The settings on record: concentration: 10 nM; 96 h; Mus musculus. The procedure:
as §1

The subject of the next series is 3LL. The experiment in a line: cell viability relative to siNT1 control; HeyA8 human ovarian and H460 human lung cancer; M565 mouse liver and 3LL mouse lung cancer; siNT1 is a non-toxic control siRNA; higher = less toxic. The settings on record: concentration: 10 nM; 96 h; Mus musculus.
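Throughout, for cell viability relative to siNT1 control: Luminescence-based viability of cells reverse transfected in 384-well plates with lipid-complexed siRNAs built on a non-toxic 19mer backbone whose passenger strand carries 2′-O-methyl groups at positions 1 and 2, triplicates.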

For the sequence UCAAUAAACAUGUAAACCAAA, the cell viability is 55.8 ± 2.9% in the series on H460, 84.3 ± 8.4% in the series on HeyA8, 78.2 ± 12% in the series on M565 and 88.5 ± 11% in the series on 3LL.

UUUAAUGACAUGUAAACCAAA: the cell viability with H460 was 76.3 ± 5.5%; in the series on HeyA8, 96.5 ± 5.6%; in the series on M565, 84.1 ± 10%; in the series on 3LL, 91.7 ± 12%.

With UGAUAAGACAUGUAAACCAAA, the cell viability is 40.3 ± 3.1% with H460, 35 ± 3.1% in the series with HeyA8, 22.1 ± 5.5% in the series with M565 and 57.3 ± 14% in the series on 3LL.

UCUGAGUACAUGUAAACCAAA: the cell viability with H460 worked out at 63.2 ± 5.1%; with HeyA8, 91.7 ± 22%; in the series with M565, 28.3 ± 10%; in the series with 3LL, 75.8 ± 12%.

Turning to UACCUAAACAUGUAAACCAAA, the cell viability in the series with H460 was 60.9 ± 6.2%; in the series on HeyA8, 84 ± 9.3%; in the series with M565, 80.3 ± 15%; in the series with 3LL, 82.5 ± 1.5%.

Consider UCCUCCUACAUGUAAACCAAA, for which the cell viability in the series with H460 was 61.9 ± 6.7%; in the series on HeyA8, 62.3 ± 1.1%; in the series on M565, 51.8 ± 7.2%; with 3LL, 74 ± 25%.

In the case of UAAAAACACAUGUAAACCAAA, the cell viability with H460 was 68 ± 7.7%; in the series with HeyA8, 95.7 ± 5.3%; in the series with M565 it was 91.9 ± 5.8%; in the series with 3LL, 113 ± 8.3%.

For the sequence UAGCUGGACAUGUAAACCAAA, the cell viability worked out at 15.4 ± 1.8% with H460, 3.21 ± 0.14% in the series with HeyA8, 14.8 ± 3.7% in the series with M565 and 11.6 ± 0.7% with 3LL.

As for UUAGAGUACAUGUAAACCAAA, the cell viability was 61.2 ± 10% with H460, 72.9 ± 2.6% in the series with HeyA8, 70 ± 18% in the series on M565 and 43.7 ± 2.2% in the series with 3LL.

On to UCAGCUGACAUGUAAACCAAA, for which the cell viability in the series with H460 stood at 84.4 ± 5.8%; in the series on HeyA8, 93 ± 9.9%; in the series on M565, 60.1 ± 4.5%; with 3LL, 95.1 ± 19%.

In the case of UUGCUAAACAUGUAAACCAAA, the cell viability in the series with H460 was found to be 24.3 ± 1.6%; in the series with HeyA8 it was 59 ± 8%; in the series with M565 it was 107 ± 16%; with 3LL it was 51 ± 2.4%.

As for UGGAAACACAUGUAAACCAAA, the cell viability with H460 was 59.5 ± 5.3%; with HeyA8, 39.7 ± 3.8%; in the series on M565, 51.4 ± 13%; with 3LL, 71.6 ± 7.9%.

As for UGCUGGAACAUGUAAACCAAA, the cell viability with H460 was found to be 62.2 ± 11%; in the series with HeyA8, 29.9 ± 3.2%; with M565, 15 ± 1%; with 3LL it was 26.2 ± 2.2%.

Regarding UUACCAGACAUGUAAACCAAA, the cell viability amounted to 36.6 ± 2.5% in the series on H460, 70.1 ± 5.1% in the series on HeyA8, 66.6 ± 17% in the series on M565 and 57 ± 14% in the series on 3LL.

For UAGUUGUACAUGUAAACCAAA, the cell viability is 44 ± 7.3% with H460, 13.9 ± 1.3% with HeyA8, 25.5 ± 4.4% in the series with M565 and 21.1 ± 7% with 3LL.

In the case of UACGGGCACAUGUAAACCAAA, the cell viability in the series on H460 was determined as 35.4 ± 4.3%; in the series with HeyA8, 8.06 ± 1.9%; with M565 it was 4.37 ± 0.43%; with 3LL it was 7.83 ± 0.97%.

On to UCCUAAAACAUGUAAACCAAA, for which the cell viability with H460 worked out at 78.1 ± 12%; with HeyA8, 87.8 ± 5.8%; with M565, 81.9 ± 17%; in the series on 3LL, 88.2 ± 16%.

As for UUCCGUAACAUGUAAACCAAA, the cell viability in the series on H460 worked out at 94 ± 10%; in the series on HeyA8 it was 93.5 ± 16%; in the series with M565 it was 95.2 ± 11%; in the series with 3LL, 90 ± 16%.

On to UUCUAGGACAUGUAAACCAAA, for which the cell viability was 39.7 ± 1.5% with H460, 82.3 ± 3.2% with HeyA8, 93.1 ± 4.6% in the series on M565 and 62.1 ± 12% in the series on 3LL.

On to UCCCUACACAUGUAAACCAAA, for which the cell viability with H460 was 63.6 ± 7.3%; in the series with HeyA8, 80.1 ± 7.6%; in the series with M565, 61.8 ± 14%; in the series on 3LL, 82.9 ± 18%.

Regarding UUUAUGGACAUGUAAACCAAA, the cell viability in the series on H460 amounted to 70.4 ± 10%; in the series on HeyA8, 63 ± 7.5%; with M565, 31.6 ± 6.5%; with 3LL it was 79.9 ± 5.3%.

UUUAUUGACAUGUAAACCAAA: the cell viability in the series on H460 is 92.9 ± 18%; in the series with HeyA8 it was 88.2 ± 3%; with M565 it was 96.1 ± 2.1%; with 3LL it was 102 ± 6.9%.

With UAGGCGUACAUGUAAACCAAA, the cell viability was 62 ± 8.8% in the series on H460, 45.8 ± 2.7% in the series with HeyA8, 12.9 ± 3.1% in the series with M565 and 42.9 ± 12% in the series on 3LL.

In the case of UUUAGCUACAUGUAAACCAAA, the cell viability in the series with H460 turned out to be 77.5 ± 6%; in the series on HeyA8 it was 67.7 ± 3.7%; in the series with M565 it was 71.4 ± 3.8%; with 3LL, 26.5 ± 1.9%.

As to UGGCCCUACAUGUAAACCAAA, the cell viability with H460 was 31.1 ± 2.2%; in the series with HeyA8, 17.4 ± 1.8%; with M565, 36.1 ± 9.2%; with 3LL, 29.9 ± 4.6%.

Take UCCUUUUACAUGUAAACCAAA: the cell viability is 73.1 ± 7.2% in the series on H460, 74.5 ± 2.6% with HeyA8, 140 ± 8.7% with M565 and 97.6 ± 23% in the series with 3LL.

Take UACGACGACAUGUAAACCAAA: the cell viability was 72.5 ± 4.1% in the series on H460, 86.4 ± 7.4% with HeyA8, 82.2 ± 9.9% in the series with M565 and 89.8 ± 12% in the series with 3LL.

Turning to UACCGCAACAUGUAAACCAAA, the cell viability with H460 was determined as 95.2 ± 17%; in the series on HeyA8, 98.3 ± 7.1%; with M565 it was 61.5 ± 5%; with 3LL, 96.9 ± 2.7%.
